Results: publication PMC3541543
These are yes or no findings as the source states them, for the method shown. For some assays here: In cells and extracts the contact can be indirect. Some entries that bind do so weakly or less than the wild type. For some assays here: Where a sequence is shown, tags or fusion partners need not be part of it. One block for each binder: values may come before it.

Key:
[1] = target: T1, GFP-tagged USH2A isoform B intracellular domain (human) (UniProt O75445); experiment: co-IP; from COS-1 cell lysates; GFP-fused USH2A isoB ICD precipitated with anti-GFP antibody, HA-tagged proteins detected
T1 sequence: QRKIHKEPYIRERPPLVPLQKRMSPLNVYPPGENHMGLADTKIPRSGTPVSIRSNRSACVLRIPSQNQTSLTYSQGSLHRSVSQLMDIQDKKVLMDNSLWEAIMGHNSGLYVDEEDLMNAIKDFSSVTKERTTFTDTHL

[2] = target: T2, USH2A isoform B peptide aa 5064 to 5196, yeast two-hybrid construct (human) (UniProt O75445); experiment: two-hybrid; GAL4-based system; deletion constructs of USH2A isoB ICD against fragments of the SPAG5 two-hybrid clone
T2 sequence: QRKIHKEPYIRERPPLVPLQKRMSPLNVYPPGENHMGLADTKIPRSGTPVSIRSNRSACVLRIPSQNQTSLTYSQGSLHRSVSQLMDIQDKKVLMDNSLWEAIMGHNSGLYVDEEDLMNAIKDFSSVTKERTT

[3] = target: T3, USH2A isoform B intracellular domain (aa 5064 to 5202), yeast two-hybrid bait (human) (UniProt O75445); experiment: two-hybrid; GAL4-based system (HybriZAP); screen of an oligo-d(T) primed human retinal cDNA library with USH2A isoB ICD as bait; clones activated all four reporter genes
T3 sequence: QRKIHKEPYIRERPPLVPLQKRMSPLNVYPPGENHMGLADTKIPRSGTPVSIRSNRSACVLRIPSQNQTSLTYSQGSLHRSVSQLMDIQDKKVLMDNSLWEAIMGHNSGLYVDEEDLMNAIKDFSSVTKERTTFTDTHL

[4] = target: T4, GST-fused USH2A isoform B intracellular domain (aa 5064 to 5202) (human) (UniProt O75445); experiment: pull-down; GST fusion protein from E. coli as bait; Flag-tagged protein from COS-1 cell lysate; detected by anti-Flag antibody; only the target purified
T4 sequence: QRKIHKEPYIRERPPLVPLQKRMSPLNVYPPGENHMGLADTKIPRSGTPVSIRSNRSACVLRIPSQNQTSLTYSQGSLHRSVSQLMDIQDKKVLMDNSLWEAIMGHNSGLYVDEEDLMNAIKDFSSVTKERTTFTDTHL

- binding [1]: binds
B1: HA-whirlin (protein, UniProt Q9P202 1-907)
chain: MNAPLDGLSVSSSSTGSLGSAAGAGGGGGAGLRLLSANVRQLHQALTALLSEAEREQFTHCLNAYHARRNVFDLVRTLRVLLDSPVKRRLLPMLRLVIPRSDQLLFDQYTAEGLYLPATTPYRQPAWGGPDSAGPGEVRLVSLRRAKAHEGLGFSIRGGSEHGVGIYVSLVEPGSLAEKEGLRVGDQILRVNDKSLARVTHAEAVKALKGSKKLVLSVYSAGRIPGGYVTNHIYTWVDPQGRSISPPSGLPQPHGGALRQQEGDRRSTLHLLQGGDEKKVNLVLGDGRSLGLTIRGGAEYGLGIYITGVDPGSEAEGSGLKVGDQILEVNGRSFLNILHDEAVRLLKSSRHLILTVKDVGRLPHARTTVDETKWIASSRIRETMANSAGFLGDLTTEGINKPGFYKGPAGSQVTLSSLGNQTRVLLEEQARHLLNEQEHATMAYYLDEYRGGSVSVEALVMALFKLLNTHAKFSLLSEVRGTISPQDLERFDHLVLRREIESMKARQPPGPGAGDTYSMVSYSDTGSSTGSHGTSTTVSSARNTLDLEETGEAVQGNINALPDVSVDDVRSTSQGLSSFKPLPRPPPLAQGNDLPLGQPRKLGREDLQPPSSMPSCSGTVFSAPQNRSPPAGTAPTPGTSSAQDLPSSPIYASVSPANPSSKRPLDAHLALVNQHPIGPFPRVQSPPHLKSPSAEATVAGGCLLPPSPSGHPDQTGTNQHFVMVEVHRPDSEPDVNEVRALPQTRTASTLSQLSDSGQTLSEDSGVDAGEAEASAPGRGRQSVSTKSRSSKELPRNERPTDGANKPPGLLEPTSTLVRVKKSAATLGIAIEGGANTRQPLPRIVTIQRGGSAHNCGQLKVGHVILEVNGLTLRGKEHREAARIIAEAFKTKDRDYIDFLVTEFNVML

- binding [2]: binds
B2: SPAG5 fragment aa 973 to 1193, yeast two-hybrid construct (domain or fragment, UniProt Q96R06 973-1193)
chain: MSIMTTELQSLCSLLQESKEEAIRTLQRKICELQARLQAQEEQHQEVQKAKEADIEKLNQALCLRYKNEKELQEVIQQQNEKILEQIDKSGELISLREEVTHLTRSLRRAETETKVLQEALAGQLDSNCQPMATNWIQEKVWLSQEVDKLRVMFLEMKNEKEKLMIKFQSHRNILEENLRRSDKELEKLDDIVQHIYKTLLSIPEVVRGCKELQGLLEFLS

- binding [1]: binds
B3: HA-tagged SPAG5 aa 973 to 1193 (domain or fragment, UniProt Q96R06 973-1193)
chain: MSIMTTELQSLCSLLQESKEEAIRTLQRKICELQARLQAQEEQHQEVQKAKEADIEKLNQALCLRYKNEKELQEVIQQQNEKILEQIDKSGELISLREEVTHLTRSLRRAETETKVLQEALAGQLDSNCQPMATNWIQEKVWLSQEVDKLRVMFLEMKNEKEKLMIKFQSHRNILEENLRRSDKELEKLDDIVQHIYKTLLSIPEVVRGCKELQGLLEFLS

- binding [3]: binds
B4: SPAG5 aa 774 to 1193, yeast two-hybrid clone from a human retinal cDNA library (domain or fragment, UniProt Q96R06 774-1193)
chain: EEMALKHMQAELQQQQAVLAKEVRDLKETLEFADQENQVAHLELGQVECQLKTTLEVLRERSLQCENLKDTVENLTAKLASTIADNQEQDLEKTRQYSQKLGLLTEQLQSLTLFLQTKLKEKTEQETLLLSTACPPTQEHPLPNDRTFLGSILTAVADEEPESTPVPLLGSDKSAFTRVASMVSLQPAETPGMEESLAEMSIMTTELQSLCSLLQESKEEAIRTLQRKICELQARLQAQEEQHQEVQKAKEADIEKLNQALCLRYKNEKELQEVIQQQNEKILEQIDKSGELISLREEVTHLTRSLRRAETETKVLQEALAGQLDSNCQPMATNWIQEKVWLSQEVDKLRVMFLEMKNEKEKLMIKFQSHRNILEENLRRSDKELEKLDDIVQHIYKTLLSIPEVVRGCKELQGLLEFLS

- binding [4]: binds
B5: Flag-tagged full-length SPAG5 (protein, UniProt Q96R06 1-1193)
chain: MWRVKKLSLSLSPSPQTGKPSMRTPLRELTLQPGALTNSGKRSPACSSLTPSLCKLGLQEGSNNSSPVDFVNNKRTDLSSEHFSHSSKWLETCQHESDEQPLDPIPQISSTPKTSEEAVDPLGNYMVKTIVLVPSPLGQQQDMIFEARLDTMAETNSISLNGPLRTDDLVREEVAPCMGDRFSEVAAVSEKPIFQESPSHLLEESPPNPCSEQLHCSKESLSSRTEAVREDLVPSESNAFLPSSVLWLSPSTALAADFRVNHVDPEEEIVEHGAMEEREMRFPTHPKESETEDQALVSSVEDILSTCLTPNLVEMESQEAPGPAVEDVGRILGSDTESWMSPLAWLEKGVNTSVMLENLRQSLSLPSMLRDAAIGTTPFSTCSVGTWFTPSAPQEKSTNTSQTGLVGTKHSTSETEQLLCGRPPDLTALSRHDLEDNLLSSLVILEVLSRQLRDWKSQLAVPHPETQDSSTQTDTSHSGITNKLQHLKESHEMGQALQQARNVMQSWVLISKELISLLHLSLLHLEEDKTTVSQESRRAETLVCCCFDLLKKLRAKLQSLKAEREEARHREEMALRGKDAAEIVLEAFCAHASQRISQLEQDLASMREFRGLLKDAQTQLVGLHAKQEELVQQTVSLTSTLQQDWRSMQLDYTTWTALLSRSRQLTEKLTVKSQQALQERDVAIEEKQEVSRVLEQVSAQLEECKGQTEQLELENSRLATDLRAQLQILANMDSQLKELQSQHTHCAQDLAMKDELLCQLTQSNEEQAAQWQKEEMALKHMQAELQQQQAVLAKEVRDLKETLEFADQENQVAHLELGQVECQLKTTLEVLRERSLQCENLKDTVENLTAKLASTIADNQEQDLEKTRQYSQKLGLLTEQLQSLTLFLQTKLKEKTEQETLLLSTACPPTQEHPLPNDRTFLGSILTAVADEEPESTPVPLLGSDKSAFTRVASMVSLQPAETPGMEESLAEMSIMTTELQSLCSLLQESKEEAIRTLQRKICELQARLQAQEEQHQEVQKAKEADIEKLNQALCLRYKNEKELQEVIQQQNEKILEQIDKSGELISLREEVTHLTRSLRRAETETKVLQEALAGQLDSNCQPMATNWIQEKVWLSQEVDKLRVMFLEMKNEKEKLMIKFQSHRNILEENLRRSDKELEKLDDIVQHIYKTLLSIPEVVRGCKELQGLLEFLS
